The whole screen tested about 150,000 compounds, of which about 180 (0.12%) were called active. The inconclusive results got no clear call from the source; some entries with a clear call stand among them for comparison. Calls come from the whole dose curve; as a rule, active = well fitted cell-killing curve with a large enough effect; inconclusive = small, poorly fitted or top-dose-only effect, or effect the other way; inactive = flat fitted curve, though single readings scatter. A potency beside an inconclusive call is a rough fit, not a confirmed value.
Experiment: GF-AFC viability counterscreen for inhibitors of alpha-synuclein gene (SNCA) expression; note: nearly all actives have a fitted effect of over 30% in size;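 for activity change, negative = cytotoxicity: 0% = DMSO-treated cells and -100% = medium-only wells without cells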
Conditions: HEK-293-SNCA-luc viability, GF-AFC fluorescence, 24 h; activity change, negative = cytotoxicity: at 57.1 µM (top of the series) unless noted
Procedure, shortened: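 Cytotoxicity counterscreen: after 24 h compound treatment of genome-edited SNCA-luciferase HEK-293 cells, live-cell protease substrate GF-AFC read by fluorescence after 30 min; activity scaled between DMSO (0%) and medium-only (-100%), curves Hill-fitted.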
Potency is the fitted concentration of half-maximal effect; tags give direction and shape of the fitted curve.

Row | Compound | Potency | activity change, negative = cytotoxicity
1 | COc1nnc(-c2ccc(N3CCCCC3)c(NC(=O)c3ccccc3Cl)c2)c2ccccc12 | inconclusive: 22.4 µM [cytotoxic, single point] | –
2 | CCOC(=O)c1[nH]c2c(c1Cc1ccccc1OC)C(=O)CC(c1ccccc1)C2 (stereo not drawn) | inconclusive: 1.78 µM [cytotoxic, full curve, poor fit] | –
3 | O=C(Nc1ccc(F)cc1)c1c[nH]c2cccnc12 | inconclusive: 10 µM [cytotoxic, single point] | –
4 | COc1cccc(CNC(=O)[C@@H]2CCCN2c2nccc(Nc3ccccc3Cl)n2)c1 | – | inactive: -12.9% [at 12.5 µM]
5 | O=C(NC1CCCCC1)N1Cc2[nH]cnc2C[C@H]1c1nc(-c2ccc(Cl)cc2)no1 | – | inactive: -6.27% [at 87.6 µM]
6 | Cc1ccc(C(=O)N2CCC3(CC2)Cc2ccccc2NC3=O)cc1 | inconclusive: 28.2 µM [cytotoxic, single point] | –
7 | O=C(NCc1ccc2c(c1)OCO2)c1nc(-c2cccc(C(F)(F)F)c2)c2cnccn12 | – | inactive: -6.99%
8 | Cc1ccc(Cn2c(=O)n(Cc3ccco3)c(=O)c3oc4ccccc4c32)cc1 | inconclusive: 1.26 µM [rising, full curve, poor fit] | –
9 | NC(=O)C1CCN(c2cc(-c3noc([C@@H]4CCCN4Cc4ccc(Cl)cc4)n3)ccn2)CC1 | – | inactive: -9%
10 | COc1ccc(CC(=O)N2CCCN(S(C)(=O)=O)c3ccccc32)cc1OC | – | inactive: 4.34%
11 | COc1ccc(-c2noc(CCCC(=O)N3CCCn4nc(-c5ccc(F)cc5)cc4C3)n2)cc1OC | inconclusive: 39.8 µM [cytotoxic, single point] | –
12 | O=c1c(-c2ccc(F)cc2)nc2cnc(N3CCNCC3)nc2n1-c1ccccc1 | inconclusive: 22.4 µM [rising, partial curve] | –
13 | CC(=O)OC1CCC2(C)C(CCC3(C)C2CC=C2C4CC(C)(C)CCC4(C)CCC23C)C1(C)C(=O)O (stereo not drawn) | inconclusive: 0.0232 µM [cytotoxic, full curve, poor fit] | –
14 | CC(C)CCNC(=O)N1CCC2(CC1)CC(N(Cc1ccc(F)cc1)C1CC1)CCO2 (stereo not drawn) | – | inactive: -5.28%
15 | COc1cccc(CN2CCCN(Cc3ccncc3)C(c3ccccc3)CC(=O)NCC2)c1OC (stereo not drawn) | inconclusive: 7.08 µM [cytotoxic, single point] | –
16 | CC(C)(C)OC(=O)N1CC(Nc2ccc(O)cc2)C1 | inconclusive: 35.5 µM [cytotoxic, single point] | –
17 | CC1(C)OC2=C(C(=O)c3ccccc3C2=O)[C@H](NCc2ccccc2)[C@H]1O | active: 13.6 µM | –
18 | O=C(Nc1cc2c(cc1C(=O)c1ccccc1Br)OCCO2)c1cccc(Cl)c1 | inconclusive: 22.4 µM [cytotoxic, single point] | –
19 | C1CCC(c2nc(CCOCC3CCCC3)no2)NC1 (stereo not drawn) | – | inactive: -3.32%
20 | N#Cc1cccc(NC(=O)N2CCC[C@@H](O)[C@H](NC(=O)c3ccc(OCc4ccc(F)cc4)cc3)C2)c1 | inconclusive: 35.5 µM [cytotoxic, single point] | –
21 | COc1ccccc1C(=O)N1CCCCCC1CN1CCc2ccccc2C1 (stereo not drawn) | inconclusive: 39.8 µM [cytotoxic, single point] | –

Row | Compound | Potency | activity change, negative = cytotoxicity
22 | COc1ccc(Cn2c(C(=O)O)c(CNCc3ccc(SC)cc3)c3ccc(OC)cc32)cc1 | inconclusive: 39.8 µM [cytotoxic, single point] | –
23 | Cc1cccc(-c2nc(CN3CCCC(C(=O)NCCc4ccc(Cl)cc4)C3)c(C)o2)c1 (stereo not drawn) | inconclusive: 39.8 µM [cytotoxic, single point] | –
24 | O=c1cc(C2=CCOCC2)oc2c(-c3cccc4[nH]ccc34)nccc12 | inconclusive: 20 µM [cytotoxic, partial curve, poor fit] | –
25 | CCc1noc(CC2CCOC3(CCN(S(=O)(=O)c4cccc(Cl)c4)CC3)C2)n1 (stereo not drawn) | – | inactive: 1.96%
26 | CCC1=C(C(=O)OC)C(c2cccc(C)c2)N2C(CC(=O)Nc3ccc(OC)cc3)=CSC2=N1 (stereo not drawn) | – | inactive: -20.3%
27 | COc1ccc(-c2noc(CC3CCN(C(=O)c4ccccc4C)CC3)n2)cc1 | inconclusive: 0.708 µM [cytotoxic, partial curve, poor fit] | –
28 | O=C(CCc1c[nH]c2ccccc12)N1CCC[C@H]1c1nc(-c2ccc(F)cc2)n[nH]1 | inconclusive: 14.1 µM [cytotoxic, partial curve, poor fit] | –
29 | CC(C)CNc1ccc2c(n1)C(C)(C(=O)N1CCC1)CN(Cc1ccccc1)C2 (stereo not drawn) | inconclusive: 56.2 µM [rising, single point] | –
30 | CCOc1cc(=O)n2c(c1C(=O)Nc1ccc3c(c1)OCO3)CCCC2 | – | inactive: -9.24%
31 | C=C(C)[C@@H]1CC=C(COC(=O)NC(=O)c2ncn3c(=O)n(C)nnc23)CC1 | inconclusive: 33.6 µM [cytotoxic, single point] | –
32 | Cc1ccc(-c2nc(C(=O)N(C)Cc3ccccc3)no2)cc1 | inconclusive: 7.94 µM [rising, single point] | –
33 | Cc1ccc(NC(=O)CN2C(=O)NC3(CCOCC3)C2=O)cc1C | inconclusive: 8.91 µM [cytotoxic, single point] | –
34 | COC(=O)N1CCn2ncc(C(=O)NCc3ccc(Cl)nc3)c2C1 | inconclusive: 4.47 µM [cytotoxic, single point] | –
35 | COc1ccc(C(=O)NC2CCN(c3cc(-c4ccc(OC)cc4)[nH]n3)CC2)cc1 | – | inactive: -9.84%
36 | COc1ccc(C)cc1NC(=O)c1cc(S(=O)(=O)N2CCN(c3cccc(C)c3C)CC2)ccc1F | – | inactive: 3.5%
37 | COc1ccc(CCNCc2ccc3c(c2)n(C)c(=O)n3C)cc1OC | inconclusive: 17.8 µM [cytotoxic, partial curve, poor fit] | –
38 | Cn1sc(=O)n(Cc2ccccc2)c1=O | inconclusive: 16.8 µM [cytotoxic, single point] | –
39 | O=[S+]([O-])(NC1CCN(Cc2cccc(-c3ccc(F)c(F)c3)c2)CC1)c1cccc(C(F)(F)F)c1 | inconclusive: 39.8 µM [cytotoxic, single point] | –
40 | CN1CCC2(C1)CN(Cc1ccccc1)c1ccc(C(=O)NCC3CC3)cc12 (stereo not drawn) | – | inactive: 9.3% [at 87.6 µM]
41 | CC1(CNc2ccccc2)COc2ccc(C(=O)N3CCN(c4ccccn4)CC3)cc2N1 (stereo not drawn) | inconclusive: 28.2 µM [cytotoxic, single point] | –
42 | COc1ccccc1NC(=O)C1=C(C)Nc2nc(-c3ccco3)nn2C1c1ccccc1F (stereo not drawn) | inconclusive: 5.01 µM [cytotoxic, partial curve, poor fit] | –

Row | Compound | Potency | activity change, negative = cytotoxicity
43 | CCC(C(=O)Nc1ccc2ncnc(N3CCCC3)c2c1)c1ccccc1 (stereo not drawn) | inconclusive: 31.6 µM [cytotoxic, single point] | –
44 | CC(C)NC(=O)c1nc(-c2ccc(Cl)cc2Cl)c2cnccn12 | – | inactive: -0.0289%
45 | O=C(NCCn1cc(SCc2ccc(F)cc2)c2ccccc21)c1cccs1 | inconclusive: 10 µM [cytotoxic, partial curve] | –
46 | CCOC(=O)c1ccc(NC(=O)Cn2ccn3nc4c(c3c2=O)CCCCC4)cc1 | – | inactive: -11.7%
47 | Cc1nn(-c2ccccc2[N+](=O)[O-])c(C)c1[C@@H]1C=C[C@@H](NCc2ccc(F)cc2)C1 | inconclusive: 50.1 µM [cytotoxic, single point] | –
48 | COc1ccc(CCc2nc(-c3nnn4c3COC(c3ccc(OC)cc3)C4)no2)cc1 (stereo not drawn) | – | inactive: 5.18%
49 | Cc1nccn1CC1CCc2c(c3ccccc3n2C)C1=O (stereo not drawn) | inconclusive: 1 µM [rising, full curve, poor fit] | –
50 | COc1cc(CNCCSc2nnnn2C)ccc1OCc1ccc(Cl)cc1Cl | inconclusive: 28.2 µM [cytotoxic, single point] | –
51 | CCC(C(=O)Nc1ccc(C)c(Cl)c1)n1c(=O)c(-c2ccccc2NC(C)=O)nc2ccccc21 (stereo not drawn) | inconclusive: 12.6 µM [cytotoxic, partial curve, poor fit] | –
52 | CC(C)c1ccc(CC(=O)N2CCCc3ncc(C(=O)Nc4cccnc4)cc32)cc1 | inconclusive: 3.16 µM [cytotoxic, full curve, poor fit] | –
53 | CCOC(=O)C1=C(C)N=C2SC=C(CC(=O)NCCc3cccs3)N2C1c1ccccc1F (stereo not drawn) | inconclusive: 7.08 µM [cytotoxic, single point] | –
54 | Cc1cc(C(=O)N2CC(N(C3CCOCC3)S(C)(=O)=O)C2)nn1C | inconclusive: 7.08 µM [rising, full curve, poor fit] | –
55 | N#CCCn1c(=O)c(-c2cccc(C#N)c2)nc2cnc(N3CCOCC3)nc21 | inconclusive: 31.6 µM [rising, single point] | –
56 | COc1ccc(C2Cn3nnc(-c4noc(-c5ccccc5OC)n4)c3CO2)cc1 (stereo not drawn) | – | inactive: 21.3%
57 | COc1ccc(CNC(=O)C2CCCN(c3nnc(C)c4c(C)n(-c5ccc(C)cc5)nc34)C2)cc1 (stereo not drawn) | inconclusive: 6.31 µM [cytotoxic, partial curve, poor fit] | –
58 | O=C(NCc1ccc(F)cc1)C1CCCN(Cc2cccc(-c3cccs3)c2)C1 (stereo not drawn) | – | inactive: -9.43%
59 | Cc1cccc(CNC(=O)CCCN2C(=O)CCn3nc(-c4cccn4C)cc32)c1 | inconclusive: 8.91 µM [cytotoxic, partial curve, poor fit] | –
60 | Cc1cccc(NC(=O)c2sc3nc(-c4cc5ccc(O)cc5oc4=O)[nH]c(=O)c3c2C)c1 | inconclusive: 17.8 µM [rising, partial curve, poor fit] | –
61 | COc1cccc(Cn2c(-c3nonc3NC(C)=O)nc3ccccc32)c1 | inconclusive: 12.6 µM [cytotoxic, partial curve, poor fit] | –
62 | COCCCNC(=O)N1CCCCCNC(=O)[C@@H]2CCCC[C@@H]21 | inconclusive: 4.47 µM [cytotoxic, full curve, poor fit] | –
63 | Cn1c2ccccc2c2cnn(CC(=O)Nc3ccccc3F)c(=O)c21 | – | inconclusive: 34.6%
